Measurements published in the supplement of paper PMC8728848.
The other results are listed elsewhere or left out.

How the values were obtained:
Assay in all cases: glycan array binding signal (z-score within array); higher = stronger binding
Settings in all cases: glycan notation: IUPAC condensed, linker removed
Gal(a1-3)GalNAc = molecular target: Gal(a1-3)GalNAc
Procedure, shortened: (§1)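 The binding signal is a Z-score computed within each array. Data were drawn from 3228 arrays in the Consortium for Functional Glycomics database, restricted to those with a known protein sequence. Scores were averaged over arrays of the same protein sequence at different concentrations or buffers, and over linkers, and negative values can be taken as non-binding.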

[1] = molecular target: Gal(a1-3)[Gal(a1-4)]Gal(b1-4)GlcNAc
Procedure, shortened: as §1

[2] = molecular target: Gal(a1-4)Gal(b1-3)GlcNAc(b1-2)Man(a1-3)[Gal(a1-4)Gal(b1-3)GlcNAc(b1-2)Man(a1-6)]Man(b1-4)GlcNAc(b1-4)GlcNAc
Procedure, shortened: as §1

Gal(a1-4)Gal(b1-4)Glc = molecular target: Gal(a1-4)Gal(b1-4)Glc
Procedure, shortened: as §1

Gal(a1-4)Gal(b1-4)GlcNAc = molecular target: Gal(a1-4)Gal(b1-4)GlcNAc
Procedure, shortened: as §1

[3] = molecular target: Gal(a1-4)Gal(b1-4)GlcNAc(b1-2)Man(a1-3)[Gal(a1-4)Gal(b1-4)GlcNAc(b1-2)Man(a1-6)]Man(b1-4)GlcNAc(b1-4)GlcNAc
Procedure, shortened: as §1

[4] = molecular target: Gal(a1-4)Gal(b1-4)GlcNAc(b1-3)Gal(b1-4)Glc
Procedure, shortened: as §1

Gal(a1-4)GlcNAc = molecular target: Gal(a1-4)GlcNAc
Procedure, shortened: as §1

Gal(a1-6)Glc = molecular target: Gal(a1-6)Glc
Procedure, shortened: as §1

Gal(b1-2)Gal = molecular target: Gal(b1-2)Gal
Procedure, shortened: as §1

Gal(b1-3)Gal = molecular target: Gal(b1-3)Gal
Procedure, shortened: as §1

Gal(b1-3)Gal(b1-4)GlcNAc = molecular target: Gal(b1-3)Gal(b1-4)GlcNAc
Procedure, shortened: as §1

[5] = molecular target: Gal(b1-3)Gal(b1-4)GlcNAc(b1-2)Man(a1-3)[Gal(b1-3)Gal(b1-4)GlcNAc(b1-2)Man(a1-6)]Man(b1-4)GlcNAc(b1-4)GlcNAc
Procedure, shortened: as §1

Gal(b1-3)GalNAc = molecular target: Gal(b1-3)GalNAc
Procedure, shortened: as §1

[6] = molecular target: Gal(b1-3)GalNAc(a1-3)[Fuc(a1-2)]Gal(b1-4)Glc
Procedure, shortened: as §1

[7] = molecular target: Gal(b1-3)GalNAc(a1-3)[Fuc(a1-2)]Gal(b1-4)GlcNAc
Procedure, shortened: as §1

[8] = molecular target: Gal(b1-3)GalNAc(b1-3)Gal(a1-4)Gal(b1-4)Glc
Procedure, shortened: as §1

[9] = molecular target: Gal(b1-3)GalNAc(b1-4)Gal(b1-4)Glc
Procedure, shortened: as §1

[10] = molecular target: Gal(b1-3)GalNAc(b1-4)[Neu5Ac(a2-3)]Gal(b1-4)Glc
Procedure, shortened: as §1

Gal(b1-3)GlcNAc = molecular target: Gal(b1-3)GlcNAc
Procedure, shortened: as §1

[11] = molecular target: Gal(b1-3)GlcNAc(a1-6)Gal(b1-4)GlcNAc
Procedure, shortened: as §1

[12] = molecular target: Gal(b1-3)GlcNAc(b1-2)Man(a1-3)[Gal(b1-3)GlcNAc(b1-2)Man(a1-6)]Man(b1-4)GlcNAc(b1-4)GlcNAc
Procedure, shortened: as §1

[13] = molecular target: Gal(b1-3)GlcNAc(b1-2)Man(a1-3)[Gal(b1-3)GlcNAc(b1-2)Man(a1-6)]Man(b1-4)GlcNAc(b1-4)[Fuc(a1-6)]GlcNAc
Procedure, shortened: as §1

[14] = molecular target: Gal(b1-3)GlcNAc(b1-3)Gal(b1-3)GlcNAc
Procedure, shortened: as §1

[15] = molecular target: Gal(b1-3)GlcNAc(b1-3)Gal(b1-4)Glc
Procedure, shortened: as §1

[16] = molecular target: Gal(b1-3)GlcNAc(b1-3)Gal(b1-4)GlcNAc
Procedure, shortened: as §1

[17] = molecular target: Gal(b1-3)GlcNAc(b1-3)Gal(b1-4)GlcNAc(b1-6)[Gal(b1-3)GlcNAc(b1-3)]Gal(b1-4)Glc
Procedure, shortened: as §1

[18] = molecular target: Gal(b1-3)GlcNAc(b1-3)Gal(b1-4)[Fuc(a1-3)]GlcNAc(b1-6)[Gal(b1-3)GlcNAc(b1-3)]Gal(b1-4)Glc
Procedure, shortened: as §1

[19] = molecular target: Gal(b1-3)GlcNAc(b1-3)GalNAc
Procedure, shortened: as §1

[20] = molecular target: Gal(b1-3)GlcNAc(b1-6)Gal(b1-4)GlcNAc
Procedure, shortened: as §1

[21] = molecular target: Gal(b1-3)[Fuc(a1-4)]GlcNAc
Procedure, shortened: as §1

[22] = molecular target: Gal(b1-3)[Fuc(a1-4)]GlcNAc(b1-2)Man(a1-3)[Gal(b1-3)[Fuc(a1-4)]GlcNAc(b1-2)Man(a1-6)]Man(b1-4)GlcNAc(b1-4)GlcNAc
Procedure, shortened: as §1

[23] = molecular target: Gal(b1-3)[Fuc(a1-4)]GlcNAc(b1-2)Man(a1-3)[Gal(b1-3)[Fuc(a1-4)]GlcNAc(b1-2)Man(a1-6)]Man(b1-4)GlcNAc(b1-4)[Fuc(a1-6)]GlcNAc
Procedure, shortened: as §1

[24] = molecular target: Gal(b1-3)[Fuc(a1-4)]GlcNAc(b1-3)Gal(b1-3)[Fuc(a1-4)]GlcNAc
Procedure, shortened: as §1

[25] = molecular target: Gal(b1-3)[Fuc(a1-4)]GlcNAc(b1-3)Gal(b1-4)GlcNAc
Procedure, shortened: as §1

[26] = molecular target: Gal(b1-3)[Fuc(a1-4)]GlcNAc(b1-3)Gal(b1-4)[Fuc(a1-3)]GlcNAc
Procedure, shortened: as §1

[27] = molecular target: Gal(b1-3)[GlcNAc(b1-6)]GalNAc
Procedure, shortened: as §1

B1: Galatrox (Botrops atrox), P0DM53 (protein)
chain: NNCPQDWLPMNGLCYKIFDELKAWKDAEMFCRKYKPGCHLASIILYGESPEWAEGHSEVWLGLWDKKKDFSWEWTDR
glycan array binding signal (z-score) (Gal(a1-3)GalNAc): -0.126
glycan array binding signal (z-score) [1]: 0.698
glycan array binding signal (z-score) [2]: 0.645
glycan array binding signal (z-score) (Gal(a1-4)Gal(b1-4)Glc): -0.372
glycan array binding signal (z-score) (Gal(a1-4)Gal(b1-4)GlcNAc): -0.251
glycan array binding signal (z-score) [3]: -0.247
glycan array binding signal (z-score) [4]: -0.373
glycan array binding signal (z-score) (Gal(a1-4)GlcNAc): -0.238
glycan array binding signal (z-score) (Gal(a1-6)Glc): -0.37
glycan array binding signal (z-score) (Gal(b1-2)Gal): -0.366
glycan array binding signal (z-score) (Gal(b1-3)Gal): 1.05
glycan array binding signal (z-score) (Gal(b1-3)Gal(b1-4)GlcNAc): 3.61
glycan array binding signal (z-score) [5]: 2.46
glycan array binding signal (z-score) (Gal(b1-3)GalNAc): -0.251
glycan array binding signal (z-score) [6]: -0.197
glycan array binding signal (z-score) [7]: 0.116
glycan array binding signal (z-score) [8]: 0.923
glycan array binding signal (z-score) [9]: -0.073
glycan array binding signal (z-score) [10]: -0.341
glycan array binding signal (z-score) (Gal(b1-3)GlcNAc): 0.063
glycan array binding signal (z-score) [11]: 2.97
glycan array binding signal (z-score) [12]: 0.763
glycan array binding signal (z-score) [13]: 0.56
glycan array binding signal (z-score) [14]: -0.17
glycan array binding signal (z-score) [15]: 0.413
glycan array binding signal (z-score) [16]: 0.396
glycan array binding signal (z-score) [17]: 2.02
glycan array binding signal (z-score) [18]: 1.06
glycan array binding signal (z-score) [19]: -0.349
glycan array binding signal (z-score) [20]: 2.11
glycan array binding signal (z-score) [21]: -0.367
glycan array binding signal (z-score) [22]: -0.101
glycan array binding signal (z-score) [23]: -0.333
glycan array binding signal (z-score) [24]: 0.286
glycan array binding signal (z-score) [25]: -0.253
glycan array binding signal (z-score) [26]: -0.375
glycan array binding signal (z-score) [27]: -0.192
